# PubChem BioAssay AID488969 (Vanderbilt High Throughput Screening Facility, 2010)
# In all, about 110,000 compounds were measured (“z-score”: median about -0.1, highest 2% from about 2 on). Some of the results follow. Calls of active or inactive are those of the source.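 How the source made its calls: active means z-score in the third read window above 3 or below -3; inactive means the rest.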 Non-standard residues stand in square brackets, D forms with d. Residues, ends and D or L forms follow the SMILES beside them. ξ: configuration not given here. *: point of attachment. ξF = NC(Cc1ccccc1)C(=O)O; Cbz = O=C(OCc1ccccc1)*
# Molecular target: Metabotropic glutamate receptor 8 (Rattus norvegicus) (UniProt P70579)
# Chain of UniProt P70579 (P70579 whole entry, looked up): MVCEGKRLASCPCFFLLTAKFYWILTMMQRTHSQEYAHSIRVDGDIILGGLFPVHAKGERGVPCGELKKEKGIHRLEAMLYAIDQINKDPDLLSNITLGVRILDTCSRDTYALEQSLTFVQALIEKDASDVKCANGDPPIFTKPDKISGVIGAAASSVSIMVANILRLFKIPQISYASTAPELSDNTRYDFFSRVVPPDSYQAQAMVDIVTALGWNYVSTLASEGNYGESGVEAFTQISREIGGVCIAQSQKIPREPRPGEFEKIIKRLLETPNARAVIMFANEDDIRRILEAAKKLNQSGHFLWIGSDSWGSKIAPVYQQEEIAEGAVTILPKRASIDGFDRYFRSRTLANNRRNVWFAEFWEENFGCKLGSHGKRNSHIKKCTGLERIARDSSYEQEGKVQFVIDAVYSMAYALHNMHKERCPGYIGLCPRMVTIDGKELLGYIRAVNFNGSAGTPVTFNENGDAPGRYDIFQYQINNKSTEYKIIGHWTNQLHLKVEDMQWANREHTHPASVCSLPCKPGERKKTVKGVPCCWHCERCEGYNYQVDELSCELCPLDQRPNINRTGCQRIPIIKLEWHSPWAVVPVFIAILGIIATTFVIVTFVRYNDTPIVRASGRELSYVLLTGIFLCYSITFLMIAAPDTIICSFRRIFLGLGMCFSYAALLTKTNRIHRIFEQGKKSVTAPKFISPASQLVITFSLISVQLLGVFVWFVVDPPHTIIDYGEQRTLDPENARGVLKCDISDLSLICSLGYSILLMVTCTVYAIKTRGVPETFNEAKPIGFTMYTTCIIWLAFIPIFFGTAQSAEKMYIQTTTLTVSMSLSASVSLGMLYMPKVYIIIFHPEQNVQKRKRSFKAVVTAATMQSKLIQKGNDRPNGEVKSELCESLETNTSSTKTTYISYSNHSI
# Assay: mGluR8 Gi/Go-coupled signaling modulation – cell-based, rat, thallium flux, HTS, primary screen (AID 488969)
# Details: HEK293 rat mGluR8, GIRK (G protein-gated inwardly rectifying potassium channel) thallium flux, FluoZin2; at 10 µM; stronger effect = higher value; submaximal glutamate (EC20) added with thallium
row,SMILES,z-score
1,CCOC(=O)c1sc(NC(=O)c2ccc(S(=O)(=O)N3CCCCC3)cc2)nc1-c1ccccc1,-0.886
2,CCOc1ccc(CC2c3cc(OCC)c(OCC)cc3CCN2C(=O)c2cc(OC)c(OC)c(OC)c2)cc1OCC (configuration not stated),-0.12
3,CCOc1ccc(NC(=O)N(CCC(C)C)C(C)c2ccco2)cc1 (configuration not stated),-1.62
4,CCOc1ccc(C(=S)N2CCCC2)cc1OC,-0.0476
5,COc1ccc(C2=NOC(C(=O)NC3CCCCC3)C2)cc1OC (configuration not stated),-1.39
6,COc1cnc(SCc2ccc(Cl)c(Cl)c2)nc1Cl,0.174
7,CSc1sc(C(=O)O)c2c1C(=O)CCC2,-0.0515
8,O=C(OCn1ncc(Cl)c(Cl)c1=O)c1ccc(C(F)(F)F)cc1,-0.397
9,CS(=O)(=O)N(CC(=O)Nc1cccc(F)c1)Cc1ccccc1,-0.0823
10,COc1ccc(-n2nc(C(=O)NCC(=O)NCC3CCCO3)c3ccccc3c2=O)c(OC)c1 (configuration not stated),-0.612
11,CCn1c(CNc2ccc(OC)cc2)nnc1SCC(=O)c1ccc(OC)cc1,0.18
12,Cc1ccc(-n2c3c(c(=O)[nH]c2=S)C(C(F)(F)F)(C(F)(F)F)NC(=O)N3)cc1,-0.142
13,CCOc1ccc(-c2cc(C(=O)NCCCN3CCN(CC)CC3)c3ccccc3n2)cc1,-0.519
14,COc1ccc(CN=C2Nc3ccccc3CS2)cc1,-0.049
15,CCN(CCNC(=O)C1CCN(S(C)(=O)=O)CC1)c1ccccc1,-0.00745
16,O=C(Nc1ccc(Cl)c(Cl)c1)Nc1cc(C(=O)N2CCOCC2)ccc1N1CCCCC1,0.242
17,CC(C)c1nc2oc3c(NCC4CCCO4)ncnc3c2c2c1CCC2 (configuration not stated),-0.0165
18,Cc1ccc(C2=C/C(=C\c3cccnc3)C(=O)O2)cc1,-0.143
19,COc1cc(NC(=O)COC(=O)/C=C/c2ccc(Cl)cc2Cl)cc(OC)c1,-0.00952
20,Cc1cccc(N2C(=O)C(Cc3ccccc3)NC2=S)c1 (configuration not stated),-0.114
21,Cc1cc(C)c(S(=O)(=O)N2CCCOC2CNC(=O)C(=O)NCCC2=CCCCC2)c(C)c1 (configuration not stated),0.0566
22,O=c1c2ccccc2nnn1CSc1nc2sc3c(c2c(=O)n1CC1CCCO1)CCC3 (configuration not stated),-0.608

row,SMILES,z-score
1,Cc1cc(-c2ccc(Cl)cc2)n2nc(N)nc2n1,-0.373
2,O=C(c1ccc(F)cc1)C1CCN(C(=O)NC2CCCCC2)CC1,0.636
3,O=C1CCc2cc(S(=O)(=O)N3CCN(c4cccc(C(F)(F)F)c4)CC3)ccc2N1,0.918
4,CNC(=S)N(CCc1ccc(OC)c(OC)c1)Cc1cc2c(C)cc(C)cc2[nH]c1=O,-0.187
5,c1ccc2c(c1)c1ccccc1n2CN1CCOCC1,-0.144
6,CC(=O)c1c(C)[nH]c(C(=O)CSc2nnc(-c3ccc(Cl)cc3)n2CC2CCCO2)c1C (configuration not stated),-0.306
7,CN(C(=O)c1cnccn1)c1nnc(-c2cnccn2)s1,-1.3
8,CCn1ncc(Br)c1C(=O)Nc1ccc(Cl)cn1,0.138
9,COc1ccc(C2OC34CCCCC3C(C#N)(C#N)C2(C#N)C(=N)O4)cc1 (configuration not stated),-0.29
10,O=C(Nc1nnc(SCc2ccc(Cl)cc2)s1)c1ccco1,0.62
11,CCCN1CCN(CCCNC(=O)c2cc3c(=O)n(C)c4ccccc4c3n2C)CC1,1.48
12,O=[N+]([O-])c1ccc2nc(-c3ccccc3)n(OCc3ccc(Cl)cc3)c2c1,-0.153
13,Cc1ccc(OCn2c(=O)sc3ccccc32)cc1,-1.31
14,O=C(CC1Oc2ccccc2NC1=O)NCc1ccccc1 (configuration not stated),0.198
15,Fc1ccc(-n2nnnc2-c2cnc(-c3cccs3)nc2C(F)(F)F)cc1,-0.224
16,COc1cc(NC(=O)c2cc3c(C)nc4ccccc4c3o2)cc(OC)c1OC,-0.362
17,CC(C)c1ccc(C2C3CSCC=C3C(C#N)=C(N)C2(C#N)C#N)cc1 (configuration not stated),-0.405
18,CN1CCN(C2=C(Cl)C(=O)C(c3cnc(N4CCCCC4)s3)=C(Cl)C2=O)CC1,-0.251
19,CC1=CC2=NC(=O)/C(=C\c3cccn3CCOc3ccc(C)c(C)c3)C(=N)N2O1,0.082
20,CCOc1ccc(C(=O)NC(=S)Nc2ccc(N3CCCCC3)cc2)cc1[N+](=O)[O-],0.404
21,COC(=O)c1ccc(/C=N/NC(=O)CC(=O)NCC(C)C)cc1,-0.0626
22,Cc1cccc(-n2ncc3c(N4CCCC4)ncnc32)c1,-0.272

row,SMILES,z-score
1,COc1cccc2cc(-c3nnc(SCC(=O)NCCc4ccccc4)n3C)oc12,-0.0662
2,Cc1ccc(NC(=O)CSc2nc3c(c(=O)[nH]2)CN(Cc2ccc(F)cc2)CC3)cc1C,0.411
3,CC(C)(C)C1CCc2c(sc(NC(=O)c3cccs3)c2C(=O)N2CCCCC2)C1 (configuration not stated),-0.229
4,COc1ccccc1CNC(=O)C(NS(=O)(=O)c1ccc2c(c1)OCCO2)C(C)C (configuration not stated),-0.203
5,Cc1cc(C)c2nc(N3CCC(C(=O)NCCCN4CCCCC4)CC3)sc2c1,0.25
6,Cc1cc(C)c2nc(SCC(=O)Nc3ccc(S(=O)(=O)N4CCCC4)cc3)c(C)cc2c1,-0.138
7,O=C(/C=C/c1ccccc1)NC(=S)Nc1ccc2c3c(cccc13)CC2,-0.162
8,Cc1cccc(C(=O)O)c1NC(=O)c1ccc(F)cc1,-0.225
9,Cc1ccc(-c2c(C(=O)NCc3ccc(F)cc3)oc(=O)c3ccccc23)cc1,-0.135
10,CC(C)c1ccc(Nc2cnn(C34CC5CC(CC(CC(=O)O)(C5)C3)C4)c(=O)c2Cl)cc1,-0.0902
11,Cc1ccc(Cn2c(/C=C/c3ccco3)nc3ccccc32)cc1,-0.117
12,CCN(CC)S(=O)(=O)c1cccc(C(=O)Nc2sc3c(c2C(N)=O)CCCC3)c1,0.11
13,Cc1cc(C)c(NC(=O)CSc2nnc(-c3ccncc3)n2Cc2ccco2)c(Cl)c1,0.453
14,Nc1c(C2=NCCO2)nnn1Cc1ccccc1,0.11
15,CS(=O)(=O)Nc1ccc(C(=O)NCCSCc2ccco2)cc1,0.0408
16,CCOC(=O)c1ccc(CNC(=O)Cn2nnc(-c3ccc(C)cc3)n2)o1,-0.199
17,O=C(NCC(c1cccs1)N1CCOCC1)c1cc2ccccc2o1 (configuration not stated),-0.224
18,C/C(=N/NC(=O)CCCOc1ccc(Cl)cc1Cl)c1ccc(C)o1,-2.09
19,COc1ccc(OCCSCc2nnc(NC(=O)Nc3ccc(Cl)cc3)s2)cc1,-0.221
20,COc1ccc(-c2cc(C(=O)Nc3nc4c(C)cccc4s3)c3ccccc3n2)cc1OC,0.101
21,O=C(NCCCO)c1nnc(Cc2c(F)cccc2Cl)o1,0.0279
22,Cc1ccc2[nH]c(=O)c(CN(C(=O)c3cccs3)c3ccccc3)cc2c1,-0.287

row,SMILES,z-score
1,O=c1c2c(nc3cc(-c4ccccc4)[nH]n13)CCS2,-0.106
2,NC(=O)COc1ccc(=O)n(-c2ccccc2)n1,-0.556
3,CC(C)(C)c1ccc(OC2=CS(=O)(=O)c3ccccc32)cc1,-0.107
4,CCOC(=O)c1c(C)[nH]c(C(=O)Cn2c(=O)oc3ccccc32)c1C,0.337
5,O=C(CN1CCC(n2nnc3cc(C(F)(F)F)ccc32)CC1)Nc1ccc2c(c1)OCCO2,0.0835
6,CCSCc1nnc(SCC(=O)c2ccc(OC)cc2)n1C,-0.0883
7,O=C(O)CCC(NC(=O)c1cncc(O)c1)C(=O)O (configuration not stated),-0.432
8,CSc1nc(N)nc(SCC(=O)Nc2cccc(F)c2)c1C#N,0.132
9,Cc1cc(C)nc(NS(=O)(=O)c2ccc(NC(=O)Cn3c(=O)oc4ccccc43)cc2)n1,-0.444
10,COc1cc2[nH]c(=S)n(CC3CCCO3)c(=O)c2cc1OC (configuration not stated),-0.0769
11,C1=C(c2ccccc2)Nc2ccccc2N=C1c1ccccc1,0.0836
12,Cc1ccc(NC(=O)COn2nnc3ccc(S(=O)(=O)N(C)C)cc32)cc1F,active: 3.29
13,O=C(NCSc1ccncn1)c1ccccc1,-0.0653
14,CC(Sc1nc(-c2ccccc2)cc(=O)[nH]1)C(=O)O (configuration not stated),-0.115
15,COc1ccc(CNC(=O)c2ccccc2[N+](=O)[O-])cc1,-0.0101
16,O=C(NCc1ccccc1)C(=O)NCC1OCCN1C(=O)c1cccs1 (configuration not stated),0.237
17,Cc1cc(NC(=O)/C=C/C(=O)N(c2ccccc2C)C(C(=O)NC2CCCC2)c2ccc(F)cc2)no1 (configuration not stated),-0.496
18,Cc1ccc(-n2c(SCC(=O)Nc3cc(C)on3)nc3ccccc3c2=O)cc1,-0.46
19,CC(=O)NC(=O)Nc1sc(=S)n(C)c1C,0.401
20,CCOC(=O)c1c(N)n(C2CC(C)(C)NC(C)(C)C2)c2nc3ccccc3nc12,-0.154
21,CCN(CC)C(=O)CNC(=O)Cc1ccc(Cl)cc1,-0.302
22,CC(C)CC(=O)Nc1cc(NC(=O)CC(C)C)cc(C(=O)NC(C)(C)C)c1,0.12

row,SMILES,z-score
1,C=CCn1c(SCc2cccc3ccccc23)nnc1-c1cccnc1,-0.0946
2,Cc1ccc(NC(=O)CC2COc3ccccc3O2)cc1 (configuration not stated),1.4
3,O=c1cc(/C=C/c2ccccc2)oc2ccccc12,-0.376
4,COc1ccccc1-n1nnnc1SCc1ccccc1,-1.83
5,Cc1nn(-c2ccccc2)c(Cl)c1/C=N/NC(=O)CNC(=O)c1ccccc1Cl,0.749
6,CCc1ccc(NSc2ccccc2[N+](=O)[O-])cc1,0.0687
7,CN(C)c1c([N+](=O)[O-])ncn1C,-0.216
8,O=C(NCCCn1ccnc1)c1ccc(Br)c(S(=O)(=O)N2CCOCC2)c1,0.0366
9,Cc1ccc(NC(=O)COC(=O)CCC(=O)c2ccc(C(C)(C)C)cc2)c([N+](=O)[O-])c1,-0.133
10,CCC(c1nnnn1Cc1ccc2c(c1)OCO2)N1CCN(c2ccc(F)cc2)CC1 (configuration not stated),0.979
11,COC(=O)CN1C(C)=Nc2ccc(Br)cc2C1c1ccccc1 (configuration not stated),-0.281
12,Cc1cccc(OCC(=O)N(C)CCc2ccccn2)c1,-0.0563
13,CCOC(=O)C(Cc1ccccc1)NC(=O)CNC(=O)CNC(=O)OCc1ccccc1 (stereo not drawn) (Cbz-Gly-Gly-[ξF]-OEt),-0.308
14,O=C(/C=C/c1cccs1)c1cc(F)ccc1OC(=O)N1CCOCC1,-0.085
15,COc1ccc(N=C(NN)c2ccc3ccccc3n2)cc1,-0.00827
16,COc1ccc2cc3c(N)nn(C(=O)c4cccc([N+](=O)[O-])c4)c3nc2c1,-0.0641
17,COc1ccc(OC)c(NC(=S)NCCC(c2ccccc2)c2ccccc2)c1,-0.202
18,CCOC(=O)CCc1c(C)c2ccc(OCc3cc([N+](=O)[O-])ccc3OC)c(C)c2oc1=O,0.0893
19,COc1ccc(CC(=O)OCN2C(=O)c3ccccc3C2=O)cc1,-0.0589
